Experimental findings from PMC7278660 are described below.

By UniProt entry, the sequences of proteins in these tests, tags left out. Where a name states a change or a piece, a line headed by the entry shows the natural chain unless it says otherwise.
UniProt P46414: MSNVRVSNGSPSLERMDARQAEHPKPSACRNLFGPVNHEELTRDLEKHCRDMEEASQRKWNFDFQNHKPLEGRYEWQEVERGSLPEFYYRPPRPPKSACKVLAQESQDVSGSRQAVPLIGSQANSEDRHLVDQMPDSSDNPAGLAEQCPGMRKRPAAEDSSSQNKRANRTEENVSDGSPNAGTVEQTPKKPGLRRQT
UniProt O35864: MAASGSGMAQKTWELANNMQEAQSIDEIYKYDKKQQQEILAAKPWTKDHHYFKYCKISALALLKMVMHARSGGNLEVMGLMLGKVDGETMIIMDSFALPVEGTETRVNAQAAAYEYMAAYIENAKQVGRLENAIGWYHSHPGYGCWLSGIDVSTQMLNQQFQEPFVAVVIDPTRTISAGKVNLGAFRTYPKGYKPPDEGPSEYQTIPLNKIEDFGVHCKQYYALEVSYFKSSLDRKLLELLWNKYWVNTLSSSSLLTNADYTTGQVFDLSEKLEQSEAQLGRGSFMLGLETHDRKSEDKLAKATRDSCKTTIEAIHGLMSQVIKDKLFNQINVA
UniProt Q9WTX6: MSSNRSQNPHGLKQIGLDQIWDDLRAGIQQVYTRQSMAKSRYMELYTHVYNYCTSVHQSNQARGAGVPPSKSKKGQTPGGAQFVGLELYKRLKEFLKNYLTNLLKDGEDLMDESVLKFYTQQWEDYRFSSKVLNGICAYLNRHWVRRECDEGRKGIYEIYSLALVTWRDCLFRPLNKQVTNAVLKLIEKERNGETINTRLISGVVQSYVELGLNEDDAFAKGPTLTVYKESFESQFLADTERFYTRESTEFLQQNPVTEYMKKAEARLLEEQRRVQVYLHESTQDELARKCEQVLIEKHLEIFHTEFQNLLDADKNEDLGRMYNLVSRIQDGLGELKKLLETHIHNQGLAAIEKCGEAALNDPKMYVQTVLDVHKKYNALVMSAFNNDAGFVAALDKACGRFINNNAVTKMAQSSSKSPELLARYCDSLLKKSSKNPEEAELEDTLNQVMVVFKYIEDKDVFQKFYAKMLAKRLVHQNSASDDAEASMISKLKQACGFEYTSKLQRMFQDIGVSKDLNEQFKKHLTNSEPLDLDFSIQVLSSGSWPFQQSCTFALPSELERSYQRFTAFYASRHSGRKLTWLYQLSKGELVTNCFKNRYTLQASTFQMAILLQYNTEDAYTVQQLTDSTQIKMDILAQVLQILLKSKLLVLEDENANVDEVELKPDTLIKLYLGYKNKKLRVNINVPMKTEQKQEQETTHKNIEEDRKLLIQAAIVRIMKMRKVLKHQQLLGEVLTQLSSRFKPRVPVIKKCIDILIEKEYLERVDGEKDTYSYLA

Results are given in words; binding and its absence hold for the method and conditions named. In cells and extracts the contact can be indirect. Some binding calls cover weakened binding; strength is not graded here. For some assays here: Sequences can lack the tags named with a protein.

For experiment [1], the target named is Cyclin-dependent kinase inhibitor 1B (P27), endogenous in mouse brain (mouse (endogenous in mouse brain)) (UniProt P46414). Kind of experiment: co-IP; WT mouse brain extract (500 µg protein), IP with anti-P27 antibody; Western blot with anti-Jab1. On the technique in general: Immunoblotting shows a protein as a band on a membrane.
The target is the same in experiment [2]. As to the kind of experiment: co-IP; MsrA KO mouse brain extract (500 µg protein), IP with anti-P27 antibody; Western blot with anti-Jab1.
Experiment [3] addresses T1, Methionine sulfoxide reductase A (MsrA), endogenous in mouse brain (mouse (endogenous in mouse brain)) (UniProt Q9D6Y7).
T1 sequence: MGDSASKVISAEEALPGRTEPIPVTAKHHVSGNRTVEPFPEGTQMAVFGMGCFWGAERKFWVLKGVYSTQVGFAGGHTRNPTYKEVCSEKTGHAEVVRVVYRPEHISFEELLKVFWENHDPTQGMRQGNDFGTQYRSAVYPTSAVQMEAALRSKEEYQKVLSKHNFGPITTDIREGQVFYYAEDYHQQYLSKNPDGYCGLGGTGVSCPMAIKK
Kind of experiment: co-IP; WT (and MsrA KO as control) mouse brain supernatants, IP with anti-MsrA antibody and protein-G Sepharose, 2 h room temperature then overnight 4 °C, PBS washes; Western blot with anti-Jab1.

In experiment [4] the target is T2, Recombinant glutathione-S-transferase-MsrA (GST-MsrA) fused protein, bovine MsrA (bovine) (UniProt P54149).
T2 sequence: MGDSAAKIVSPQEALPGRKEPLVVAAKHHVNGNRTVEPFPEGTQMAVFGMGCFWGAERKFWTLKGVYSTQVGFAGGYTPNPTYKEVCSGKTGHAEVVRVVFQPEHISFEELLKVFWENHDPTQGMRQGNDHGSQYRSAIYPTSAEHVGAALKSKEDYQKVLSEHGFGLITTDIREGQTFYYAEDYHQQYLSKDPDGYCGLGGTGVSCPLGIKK
As to the kind of experiment: pull-down; Sepharose GST-MsrA or Sepharose-GST resin incubated with MsrA KO mouse brain supernatant (20 µg protein), 2 h at room temperature then overnight at 4 °C, washed with PBS; Western blot with anti-Jab1; only the target purified.

Experiment [5] deals with c-Jun activation domain-binding protein-1 (Jab1/CSN5), endogenous in mouse brain (mouse (endogenous in mouse brain)) (UniProt O35864). As to the kind of experiment: co-IP; WT and MsrA KO mouse brain extracts (500 µg protein), IP with anti-Jab1 antibody; Western blot with anti-Cul-1.

Regarding “c-Jun activation domain-binding protein-1 (Jab1/CSN5), endogenous in mouse brain (from UniProt O35864 1-334)”, the binding result in experiment [1] is “binds”; in experiment [2], “no binding (condition: brain extract of MsrA KO mice)”; in experiment [3], “binds”; in experiment [4], “binds”.

For “Neddylated Cullin-1 (100-kDa neddylated Cul-1), endogenous in mouse brain (from UniProt Q9WTX6 1-776; P29595 1-76)”, the binding result in experiment [5] is reported as “binds”.
